# Assay results: the RNAGym collection of RNA variant scans (doi:10.7554/elife.90254)
# The source gives no read counts; variants with many changes may rest on few reads.
# B1: OR4K15 (parent)
# chain: GUUAACGGUCAUAGGCCAUGGAAACUAGGAGCACCAUUUCGCUGCCAGUGAAGAAAUGAACAAAGAAAAUCUGGGCCAGGCAGGCAUCAAAAGAAAUAGUCUUGCGCUCAACCAGAAAGUCUGUAAUCAUUUUAAGGGUA
# Variants of: B1
# Test: self-cleavage, relative activity (ratio to wild type); higher = more cleavage; in vitro, sequencing; the parent is a self-cleaving ribozyme
row,Variant,self-cleavage
1,A33G A92G A96U U97C A110U,0.58
2,A68G U100C A126G,0.99
3,G79C A116G U120G,0.01
4,A24U A52G A82U,0.27
5,A64G U70C G73U U100C,0.16
6,U39A A68U U102C U120C,2.22
7,A22G A129G U132C,0.84
8,C40A U57A U70C,1.48
9,U43A A62G U122A,1.04
10,U9C A52U A68G U122C,0.88
11,U2C A11G A96G U122A,0.71
12,U37C U38C A56G U57C A89G U103C,0.43
13,A30G A56G A82G,0.71
14,A13U A55G A66G,1.64
15,U2C A62G A117G,1.52
16,A5G U100A U127C,0.23
17,U39A U43C A47U,1.06
18,A18G A68G U102C U103A,0.24
19,U43C A47U A60G U72A,0.11
20,A5C A30C U38C A91G A92G,1.02
21,A22G A68U A96G C105A,0.05

row,Variant,self-cleavage
1,A60G A82G U122C,0.23
2,A55G A98G U108C A118G,0.01
3,U2C A51G A55G,0.67
4,U26A U38C A89U U127A,2.96
5,U2A A22G A92G,1.38
6,U19A A62G A67G A94G,0.65
7,A59G A92G U102C,1.12
8,U3C A47G A78G,0.23
9,G8A U9A A67G A68U C105U U120C,0.04
10,A91G U102C U131C,2.02
11,G74A A98G U130A,0.02
12,A27G A54G A118G,1.42
13,A47G A67G A94U,2.24
14,G31U U38C A125G,1.08
15,C10U A56G A60G A82G,0.84
16,A24G A54G A67G A68C,0.95
17,A24U A52G U102C A114C U130C,0.01
18,C16U A30G U37C U130C,0.37
19,G20A A24G A33C,1.24
20,A52G A68U A96G,1.11
21,A5G U100C A111C U120C,0.02

row,Variant,self-cleavage
1,A33G U37C A66G A94G A118G,0.7
2,A22G A23G A55G U72C,0.33
3,U9C U19C A98G U103C,0.06
4,A59G A60U A66G U100C,2.31
5,C6G A24G U57C A68U,1.15
6,U37C A52G A78G,0
7,U57A A66G U103C,0.33
8,U49C A66G C105A,0.01
9,U9C A18G A52G A82G,0.64
10,A66U U70C A140G,1.24
11,U49C U72A A78G,0.19
12,A23U A111G U122C,0.02
13,A22G A51G C81U,0.55
14,A11G U43A A59U A114G,0.8
15,A11G A60G A91G A94G A116G,0.46
16,A11G U39C A64G A68G G106A,0.02
17,A4G A69G A118G U122C,1.1
18,A4G C16U A67G U122C,1.6
19,A27U A62C U72C A82G,0.19
20,A22G A52G A59G A82G,0.6
21,A11G A92G A110G,0.05

row,Variant,self-cleavage
1,U39C A91G A94C,0.42
2,A22G A62G U132C,1.55
3,A23G A125G A135G,0.44
4,A30G A66G A82U,0.3
5,U9C U26A U87C,1.85
6,A60U A89U A117G,1.06
7,A18G A59G C71A,0.83
8,U2C U38C A86G U122C,0.93
9,A82U A89G G93A,0.2
10,A13G A56G U87C A96G,1.6
11,U43C U133C A134G,2.11
12,A68G A86G U97C,1.32
13,A63U A64G U120C,1.63
14,A67G U100G A116C U122A A135G,0.05
15,A13U G29A U37C A78G G83A U87C C88U U131C,0.14
16,A55G A56G A117G,1
17,A51G U87C U131C,0.85
18,A30G C40A A66U A68G C76U A82G U130C U139C,0.06
19,A60C G65A U100C U120C,2.12
20,U49C A94G A118C,0.7
21,A33G A54G C105U,0.19
